# Results as given in PubChem BioAssay AID504845 (National Center for Advancing Translational Sciences (NCATS), 2011).
# Among all 390,000 compounds or so, about 150 (0.038%) were called active. The shares of active, inactive and inconclusive entries below differ from those in the screen. Calls come from the whole dose curve; as a rule, active = well fitted inhibition curve with a large enough effect; inconclusive = small, poorly fitted or top-dose-only effect; inactive = no such curve, though single readings can be large or run the other way. Where the call is inconclusive, the potency comes from a doubtful curve fit.
# Target: Regulator of G-protein signaling 4 (Homo sapiens) (UniProt P49798)
# Assay: Inhibitors of Regulator of G Protein Signaling (RGS) 4: qHTS; note: nearly all actives have a fitted effect of over 75% in size
# Details: Transcreener GDP fluorescence polarization, RGS4-accelerated GTP hydrolysis; series mostly up to 114 µM
# Procedure, shortened: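 MLSMR compounds (23 nl, pin-transferred) preincubated 10 min at room temperature with a 500nM (2x) first reagent, then RGS4 at 900nM (2x) plus Transcreener GDP mix added; fluorescence polarization (620/688 nm) read before and after 90 min at 30 °C.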
# Potency is the fitted concentration of half-maximal effect; tags give direction and shape of the fitted curve.
# Sequence of UniProt P49798 (P49798 whole entry, looked up): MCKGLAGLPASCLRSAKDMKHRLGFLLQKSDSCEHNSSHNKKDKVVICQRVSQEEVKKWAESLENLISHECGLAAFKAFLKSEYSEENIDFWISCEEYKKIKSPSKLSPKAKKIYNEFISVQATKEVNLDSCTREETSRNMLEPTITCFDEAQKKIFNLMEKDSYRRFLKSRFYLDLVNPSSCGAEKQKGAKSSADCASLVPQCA
row,SMILES,Potency
1,O=C1NCCN1CCNS(=O)(=O)c1ccc(F)cc1,"inconclusive: 100 µM [inhibitor, single point]"
2,CC(C)(C)c1ccc(C(=O)N/C(=C\c2ccco2)C(=O)Nc2ccccc2C(=O)O)cc1,"inconclusive: 79.4 µM [inhibitor, partial curve, poor fit]"
3,Cc1cc(C)c(C(=O)Cn2nc(C(=O)O)c3ccccc3c2=O)cc1C,"inconclusive: 79.4 µM [inhibitor, partial curve, poor fit]"
4,CCCCn1cnc2c(SCc3ccccc3Cl)nc(N)nc21,inactive
5,CC(C)OC(=O)c1ccc(Cn2nnc3sc4c(c3c2=O)CCCC4)cc1,inactive
6,CCOc1cc(C(=S)N2CCOCC2)ccc1O,"inconclusive: 50.1 µM [inhibitor, partial curve, poor fit]"
7,CC1(C)Cc2c(sc3ncn4c(=S)[nH]nc4c23)CO1,"inconclusive: 39.8 µM [inhibitor, full curve, poor fit]"
8,CC(C)n1c(=O)[nH][nH]c1=S,"inconclusive: 79.4 µM [inhibitor, partial curve, poor fit]"
9,Cc1ccc(C)c(NC(=S)NNC(=O)c2csc3c2CCC(C)C3)c1 (stereo unspecified),inactive
10,O=C(Nc1cccnc1)c1cccc(F)c1,"inconclusive: 79.4 µM [inhibitor, partial curve, poor fit]"
11,CCOC(=O)c1sc(N)c(C(=O)Nc2ccccc2)c1C,"inconclusive: 44.7 µM [inhibitor, partial curve, poor fit]"
12,COc1ccc(C(=O)NC(=S)N(CCC(C)C)c2c(N)n(Cc3ccccc3)c(=O)[nH]c2=O)cc1,"inconclusive: 50.1 µM [inhibitor, partial curve, poor fit]"
13,CCN(CC)c1ccc(NC2CC(=O)N(CCc3ccc(OC)cc3)C2=O)cc1 (stereo unspecified),"inconclusive: 79.4 µM [inhibitor, partial curve, poor fit]"
14,COc1cc(OC)cc(C(=O)NC(=S)NNC(=O)c2cnccn2)c1,"inconclusive: 89.1 µM [inhibitor, partial curve, poor fit]"
15,CC(=O)OCCCNc1cc(Sc2ccc(C)cc2)c2nonc2c1[N+](=O)[O-],"inconclusive: 79.4 µM [inhibitor, partial curve, poor fit]"
16,O=C(Nc1nnc(-c2ccncc2)o1)c1ccccc1,"inconclusive: 25.1 µM [inhibitor, full curve, poor fit]"
17,COc1ccc(C2NC(=O)c3sc(=S)n(-c4ccccc4)c3N2)cc1 (stereo unspecified),"inconclusive: 100 µM [inhibitor, partial curve, poor fit]"
18,Cn1c2ccccc2c(=O)c2ccc(-c3ccc4c(c3)OCO4)cc21,"inconclusive: 20 µM [inhibitor, full curve, poor fit]"
19,Cc1ccc(C2C=C(c3ccccc3)Nc3ncnn32)cc1 (stereo unspecified),"inconclusive: 39.8 µM [inhibitor, partial curve, poor fit]"
20,CCN1C(=NCCCOC(C)C)N[C@@H](CCc2ccccc2)[C@H](C(=O)NCCCOC(C)C)[C@H]1C,"inconclusive: 100 µM [inhibitor, partial curve, poor fit]"
21,COc1ccc(NC(=O)Nc2cc(NC(=O)Nc3ccc(OC)cc3)c(C)nc2C)cc1,"inconclusive: 79.4 µM [inhibitor, single point]"

row,SMILES,Potency
1,COc1ccccc1NC(=O)Cn1c(O)c(N=NC(=O)c2ccccc2O)c2ccccc21,"inconclusive: 44.7 µM [inhibitor, partial curve, poor fit]"
2,O=c1[nH]cc(I)cc1I,"inconclusive: 50.1 µM [inhibitor, partial curve, poor fit]"
3,S=C(c1ccc(Br)cc1)N1CCN(Cc2ccccc2)CC1,"inconclusive: 79.4 µM [inhibitor, partial curve, poor fit]"
4,CC(C)Oc1cccc(C(=O)C2CCCN(C(=O)c3cc(C(F)(F)F)[nH]n3)C2)c1 (stereo unspecified),inactive
5,Cc1ccc(NS(=O)(=O)c2cc([N+](=O)[O-])ccc2NNC(=S)Nc2cc(C)ccc2C)c(C)c1,"inconclusive: 44.7 µM [inhibitor, partial curve, poor fit]"
6,COc1ccccc1NC1=Nc2cccc3cccc1c23,inactive
7,CCOc1ccc(S(=O)(=O)N(CC)CC)cc1NS(=O)(=O)c1ccc(F)c(F)c1F,"inconclusive: 50.1 µM [inhibitor, partial curve, poor fit]"
8,COc1cc(/C=C/c2nc(C#N)c(N3CCN(C)CC3)o2)cc(OC)c1OC,inactive
9,O=C(c1ccc(Br)o1)N1CCN(C/C=C/c2ccccc2)CC1,inactive
10,C#CCOCCOCCOCCNc1nc(N2CCN(C(=O)CCCCCCCCCCNC(=O)[C@@H](CCSC)n3cc(CCO)nn3)CC2)nc(N2CCN(C(=O)CCCCCCCCCCNC(=O)[C@H]([C@@H](C)CC)n3cc(CCCCN=C(N)N)nn3)CC2)n1,"inconclusive: 31.6 µM [inhibitor, full curve, poor fit]"
11,CC(=O)n1cc(CO)c2ccccc21,inactive
12,CCOc1cc(CNc2ccc(N(C)C)cc2)cc(Br)c1OCC(=O)NC(C)(C)C,"inconclusive: 25.1 µM [inhibitor, full curve, poor fit]"
13,C=CCOc1ccc(/C=C/C(=O)Nc2ccc(C(=O)NC)cc2)cc1,"inconclusive: 56.2 µM [inhibitor, partial curve, poor fit]"
14,COc1ccc(C2Nc3ccc(NC(=O)CO)cc3C(=O)N2Cc2cccc(Cl)c2)cc1COc1ccc(NC(C)=O)cc1 (stereo unspecified),inactive
15,Cc1ccc(NC(=O)C2CCCN(C(=O)c3ccc(Cl)cc3)C2)cc1 (stereo unspecified),"inconclusive: 50.1 µM [inhibitor, partial curve, poor fit]"
16,COc1cccc(CNC(=O)CSc2ccc(-c3sc(-c4ccccc4)nc3C)nn2)c1,"inconclusive: 50.1 µM [inhibitor, partial curve, poor fit]"
17,CN(C)CCN(C(=O)/C=C/c1cccs1)c1nc2c(F)cc(F)cc2s1,"inconclusive: 17.8 µM [inhibitor, full curve, poor fit]"
18,CCNC(=O)/C(C#N)=C/c1c(N2CCN(C)CC2)nc2c(C)cccn2c1=O,inactive
19,O=C(c1cccs1)C1C(c2ccc(Br)cc2)NC(=S)NC1(O)C(F)(F)F (stereo unspecified),"inconclusive: 31.6 µM [inhibitor, full curve, poor fit]"
20,O=C(COc1ccccc1)N1c2ccccc2Sc2ccccc21,"inconclusive: 89.1 µM [inhibitor, single point]"
21,COc1ccc(OCCn2c(C3CC(=O)N(c4ccc(F)cc4)C3)nc3ccccc32)cc1 (stereo unspecified),"inconclusive: 31.6 µM [inhibitor, full curve, poor fit]"

row,SMILES,Potency
1,CC(=O)c1ccc(N2CCN(C(=O)CCS(=O)(=O)c3ccc4c(c3)CCN4C(C)=O)CC2)cc1,inactive
2,O=C(NCc1ccccc1)C(c1ccc(F)cc1)N(Cc1ccco1)C(=O)c1ccccn1 (stereo unspecified),"inconclusive: 89.1 µM [inhibitor, partial curve, poor fit]"
3,O=C(Nc1ccncc1)c1cc2ccccc2cc1O,"inconclusive: 79.4 µM [inhibitor, partial curve, poor fit]"
4,N#C/C(=C\c1cccs1)C(=O)c1ccccc1,inactive
5,O=c1c(O)c(-c2cccs2)oc2ccc(Cl)cc12,"inconclusive: 100 µM [inhibitor, single point]"
6,Cc1ccc(N2C(=O)C3C4C=CC(CNC(=S)Nc5ccc(Cl)cc5)(O4)C3C2=O)cc1 (stereo unspecified),"inconclusive: 44.7 µM [inhibitor, partial curve, poor fit]"
7,CC1(C)CC(CC(=O)NNc2nc(-c3ccccc3)cs2)C(=O)O1 (stereo unspecified),"inconclusive: 31.6 µM [inhibitor, partial curve, poor fit]"
8,Cc1ccc(C)n1-c1nnc(N2CCC(C(=O)NCc3ccccc3Cl)CC2)s1,inactive
9,COc1cccc(OC)c1-c1nn2c(-c3cc(-c4ccccc4)n[nH]3)nnc2s1,"inconclusive: 17.8 µM [inhibitor, partial curve, poor fit]"
10,O=C(Cn1c(=O)n(Cc2ccco2)c(=O)c2c3c(sc21)CCCCC3)Nc1ccccc1,"inconclusive: 39.8 µM [inhibitor, partial curve, poor fit]"
11,CN1CCN(c2ccc(NC(=O)c3ccc(-c4ccc(Cl)cc4)o3)cc2)CC1,inactive
12,Cc1ccc(-c2nc3scc(CCNC(=O)c4cccc(Br)c4)n3n2)cc1,inactive
13,COc1ccc(C(NC(=O)c2ccco2)c2ccc(OC)c(OC)c2)cc1 (stereo unspecified),inactive
14,COc1ccccc1C(=O)Nc1c2c(nn1-c1ccc(Cl)cc1)CS(=O)(=O)C2,"inconclusive: 70.8 µM [inhibitor, partial curve, poor fit]"
15,Cc1cc(C)cc(C(=O)N(C)[C@H](Cc2ccc(-c3ccccc3)cc2)C(=O)N[C@@H](Cc2c[nH]c3ccccc23)C(=O)O)c1,inactive
16,O=C(COC(=O)c1ccc(Cl)c(S(=O)(=O)N2CCCC2)c1)NC1CCCCC1,"inconclusive: 70.8 µM [inhibitor, single point]"
17,O=C(N=C1c2ccccc2CN1c1ccccc1)c1cccc([N+](=O)[O-])c1,"inconclusive: 100 µM [inhibitor, partial curve, poor fit]"
18,Cc1cc(/C=C2\SC(N)=NC2=O)c(C)n1-c1ccc(F)cc1,"inconclusive: 70.8 µM [inhibitor, single point]"
19,Cc1ccc(-c2cc(C(=O)N3CC(C)CC(C)C3)c3ccccc3n2)o1 (stereo unspecified),"inconclusive: 39.8 µM [inhibitor, partial curve, poor fit]"
